# Publication PMC4336329 (PLoS ONE, 2015)
# Among all 310,000 compounds or so, about 14,000 (4.5%) showed an effect of 50% or more. Effects have a minus sign here. The list shows a part of the results.
# Target: human ether-à-go-go-related gene (hERG) potassium channel (human, UniProt Q12809)
# Assay: primary screen, population patch clamp on CHO cells stably expressing hERG
# 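Further: peak tail current of the secondary pulse compared with the same well before compound.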
# Sequence of human ether-à-go-go-related gene (hERG) potassium channel (Q12809 whole entry, looked up): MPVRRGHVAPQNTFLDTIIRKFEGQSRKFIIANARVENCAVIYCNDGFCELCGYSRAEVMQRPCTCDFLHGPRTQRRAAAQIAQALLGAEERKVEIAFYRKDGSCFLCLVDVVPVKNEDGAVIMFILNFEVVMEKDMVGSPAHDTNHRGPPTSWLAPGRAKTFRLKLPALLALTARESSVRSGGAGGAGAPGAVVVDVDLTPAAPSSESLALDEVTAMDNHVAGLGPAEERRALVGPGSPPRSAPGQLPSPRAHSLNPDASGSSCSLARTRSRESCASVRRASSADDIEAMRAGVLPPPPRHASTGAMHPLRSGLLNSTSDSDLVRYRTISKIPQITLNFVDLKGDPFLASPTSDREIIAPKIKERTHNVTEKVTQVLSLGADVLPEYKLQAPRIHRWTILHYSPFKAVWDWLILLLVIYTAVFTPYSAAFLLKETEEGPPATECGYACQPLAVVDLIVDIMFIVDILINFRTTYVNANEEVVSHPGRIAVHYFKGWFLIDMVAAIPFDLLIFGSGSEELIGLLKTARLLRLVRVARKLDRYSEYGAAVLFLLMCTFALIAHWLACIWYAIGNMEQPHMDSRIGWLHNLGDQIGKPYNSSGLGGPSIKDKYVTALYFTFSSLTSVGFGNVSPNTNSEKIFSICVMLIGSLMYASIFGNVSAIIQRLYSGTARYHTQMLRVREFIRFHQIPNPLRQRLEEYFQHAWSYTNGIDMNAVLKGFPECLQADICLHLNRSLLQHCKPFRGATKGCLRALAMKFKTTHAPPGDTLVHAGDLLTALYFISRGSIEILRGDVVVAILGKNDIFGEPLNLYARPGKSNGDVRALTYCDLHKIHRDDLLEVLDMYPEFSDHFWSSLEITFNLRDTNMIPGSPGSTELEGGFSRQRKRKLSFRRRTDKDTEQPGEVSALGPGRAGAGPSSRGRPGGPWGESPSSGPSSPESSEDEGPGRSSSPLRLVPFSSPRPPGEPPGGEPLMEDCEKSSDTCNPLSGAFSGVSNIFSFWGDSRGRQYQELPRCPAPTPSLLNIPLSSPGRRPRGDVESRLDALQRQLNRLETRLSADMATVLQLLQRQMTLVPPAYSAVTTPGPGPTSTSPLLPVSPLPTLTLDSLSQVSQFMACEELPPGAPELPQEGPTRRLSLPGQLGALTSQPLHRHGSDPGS
row,Compound,"hERG current change (%, negative = inhibition) at 10uM [%]"
1,O=C(NC12CC3CC(CC(C3)C1)C2)N1CCC(n2nnc3ccccc32)CC1,2.67
2,CCN1C(=NCCOC)N[C@@H](CCc2ccccc2)[C@H](C(=O)OC)[C@H]1C,-1.21
3,O=C1NC(=O)C2(Cc3c(nc4ccccn4c3=O)N3CCCCCC32)C(=O)N1Cc1ccccc1 (stereo not shown),-31.3
4,CC(=O)NC1=NN(C(C)=O)C(c2ccc(C(C)C)cc2)S1 (stereo not shown),5.12
5,CCOC(=O)c1[nH]c(C)c(C(=O)NC(C)(C)C)c1C,-0.859
6,COC(=O)c1ccc(/C=C/c2ccc3cccc(OC(C)=O)c3n2)cc1,4.18
7,CCCCc1cc(=O)oc2c(CN(C)C)c(O)ccc12,-37.9
8,CC(C)(C)C(=O)NNc1nc(-c2ccccc2)c2cc(Br)ccc2n1,-0.33
9,O=C(CSc1ccc(-c2ccccc2)nn1)c1ccccc1,-5.17
10,O=C(Cn1nnc(-c2ccc(CN3CCOCC3)cc2)n1)Nc1nc(-c2ccccc2)cs1,-3.24
11,Cc1ccc(-c2csc(NC(=O)c3cccc(S(=O)(=O)N4CCN(C)CC4)c3)n2)cc1,-4.09
12,CC1(C)CC(OC(=O)c2ccccc2)CC(C)(C)N1,9.14
13,COC(=O)c1nc(NC2=NCCCCC2)n[nH]1,9.79
14,COc1cc(O)c(C(CCN2CCCCC2)c2ccc3c(c2)OCO3)c(OC)c1 (stereo not shown),-78.3
15,COc1ccc(C(=O)Nc2cc(OC)ccc2OC)cc1,7.17
16,CCS(=O)(=O)c1ccc(NC(=O)c2ccccc2Cl)c(O)c1,2.25
17,COc1ccccc1NS(=O)(=O)c1cc(NC(=O)c2ccc3c(c2)OCCO3)ccc1C,4.37
18,CCOc1ccccc1C(=O)NCC(=O)Nc1ccc2c(c1)OCO2,9.91
19,COc1ccc2nc(C)cc(N/N=C/c3ccccc3)c2c1,-17.1
20,O=c1[nH]c2cc3c(cc2cc1C(c1nnnn1CC1CCCO1)N1CCCC1)OCO3 (stereo not shown),15
21,Nc1c(S(=O)(=O)c2ccccc2)c2nc3ccccc3nc2n1/N=C/c1cccc(O)c1,2.33
22,COC(=O)C1CSC(c2ccc(Cl)cc2)N1C(=O)c1ccccc1 (stereo not shown),-47.1

row,Compound,"hERG current change (%, negative = inhibition) at 10uM [%]"
1,CCN(CC)CCOC(=O)c1ccccc1Br.Cl,0.452
2,CCc1cccc2c(C(=O)COC(=O)/C=C/c3ccccc3OC)c[nH]c12,-16
3,CCCc1cnc(N2CCN(S(=O)(=O)c3cccs3)CC2)nc1,6.53
4,O=C(O)c1ccc(NC(=O)c2cccc(NC(=O)c3cccs3)c2)cc1,-6.21
5,COC(=O)c1c(C)[nH]c(C(=O)OCC(=O)N2c3ccccc3NC(=O)C2(C)C)c1C,-15.1
6,O=C(COC(=O)c1sc2ccccc2c1Cl)Nc1ncc(Cl)cc1Cl,-0.251
7,CC1CCN(S(=O)(=O)c2ccc3c(c2)C(=NO)c2cc(S(=O)(=O)N4CCC(C)CC4)ccc2-3)CC1,8.19
8,Cc1cc(NC(=O)Nc2c[nH]c(=O)[nH]c2=O)ccc1Br,16.4
9,COc1ccc(NC(=S)Nc2cccnc2)c(OC)c1,8.2
10,COc1ccccc1NC(=O)C1=C(C)NC2=C(C(=O)CCC2)C1c1ccc2c(c1)OCO2 (stereo not shown),-17.7
11,O=[N+]([O-])c1cc(Br)c(Nc2ccccc2)c([N+](=O)[O-])c1,8.13
12,Cc1cc(OCC(=O)NCc2ccncc2)c2c(C)c(C)c(=O)oc2c1,-40.6
13,O=C(NCCCn1ccnc1)C(=O)NCC(c1cccnc1)N1CCN(c2ccc(F)cc2)CC1 (stereo not shown),-2.97
14,COc1ccccc1NC(=O)CSc1nnc(-c2ccccn2)o1,12.7
15,CC(CCc1ccccc1)NC(=O)COc1ccc(S(=O)(=O)N2CCOCC2)cc1[N+](=O)[O-] (stereo not shown),-24.8
16,c1cnc2c(OCc3cn4cccnc4n3)cccc2c1,11.4
17,CCCCc1nc(C(N)=O)c2[nH]c(=O)n(-c3ccc(OCC)cc3)c2n1,-4.95
18,CC(=O)Nc1ccc(S(=O)(=O)N2C(=O)c3cccc4cccc2c34)cc1,-9.5
19,CCN1CCN(S(=O)(=O)c2ccc(Cl)c(C(=O)N(C)Cc3cccs3)c2)CC1,-14.6
20,CCOc1ccc(N=Nc2c(=O)[nH]n3c(=O)cc(C)[nH]c23)cc1,-7.81
21,CC(=O)N1CCN(C(=O)c2ccc(OC3CCN(Cc4ccccn4)CC3)cc2)CC1,17.9
22,Cc1nc(Nc2ccccc2C(F)(F)F)sc1C(=O)N(C)C,21.7

row,Compound,"hERG current change (%, negative = inhibition) at 10uM [%]"
1,Cc1ccc([N+](=O)[O-])c(OCCCNCC(C)O)c1.O=C(O)C(=O)O (stereo not shown),2.13
2,Cc1cc(NC(=O)CC2CCCC2)ccc1Br,7.51
3,COc1ccc(-c2cc(C(=O)NCCCN3CCOCC3)c3cc(C(C)C)ccc3n2)cc1,-3.68
4,O=C(NCc1cccnc1)C1CC(c2cccc(Br)c2)=NO1 (stereo not shown),-1.37
5,Cc1cccc(N2CCN(c3ccc4cc(S(=O)(=O)N5CCCCC5)ccc4n3)CC2)c1C,18.2
6,CC(=O)/C=C1\N(C)c2ccc(C)cc2C1(C)C,4.27
7,COc1cccc(/C=N/NC(=O)NC2CCCCC2)c1O,3.19
8,COC(=O)c1nn(-c2ccccc2)c(Cl)c1/C=N/O,9.89
9,CCOc1ccc(CC(=O)Nc2ccc(S(=O)(=O)Nc3cc(C)on3)cc2)cc1OCC,11.7
10,COc1cccc(-c2nn(-c3ccccc3)cc2CN(C)C(C)c2ccon2)c1 (stereo not shown),-2.83
11,COc1ccc(/C(N)=N/OC(=O)N2CCOCC2)cc1,-28.8
12,Cl.O=C(NCCCn1ccnc1)c1ccc(F)cc1,-2.81
13,CC(C)c1[nH]nc2c1C(c1cccs1)C(C#N)=C(N)O2 (stereo not shown),16
14,CCOc1ccc(NC(=O)CCNc2c(N3CCCC3)c(=O)c2=O)cc1,10.8
15,COC(=O)c1ccc(OC(=O)CCS(=O)(=O)c2ccc(C)cc2)cc1,-16.4
16,NNC(=O)c1ccc(S(=O)(=O)N2CCc3ccccc32)cc1,14.7
17,O=C(Nc1cccc(C(F)(F)F)c1)c1ccc(Cn2cc(Br)cn2)o1,-26.3
18,Cn1c(N)c(C(=O)Nc2ccccc2)c(=O)[nH]c1=O,8.83
19,O=C(NNC(=O)c1cc(Cl)ccc1[N+](=O)[O-])c1csc(N2CCOCC2)n1,10.5
20,CCc1ccccc1-n1nnc(-c2ccccc2)n1,-0.113
21,Cc1cc(SCC(=O)NCCN2C(=O)CSC2=O)nc2ccccc12,7.59
22,CCC(C)NC(=O)Cn1c(COc2ccc(Cl)cc2Cl)nc2ccccc21 (stereo not shown),12

row,Compound,"hERG current change (%, negative = inhibition) at 10uM [%]"
1,CCC1CCCCN1C(=O)CSc1nc(N)c(NC(=O)c2ccc(OC)c(OC)c2)c(=O)[nH]1 (stereo not shown),4.63
2,CCCCNC(=O)c1ccc(NS(=O)(=O)c2ccccc2)cc1,11.1
3,CCC(CO)NCc1cc(OC)c(OCC(=O)NCCc2ccccc2)cc1Br (stereo not shown),-19.4
4,Cn1c(=O)c2[nH]c(-c3ccc(S(=O)(=O)O)cc3)nc2n(C)c1=O.O,10.2
5,CC(=O)Nc1cccc(C(=O)N(Cc2ccccc2)Cc2ccccc2)c1,3.97
6,CC(=O)Nc1ccc2oc(-c3ccccc3)nc2c1,18.1
7,Cc1ccc(-n2c(-c3ccc(Cl)cc3)n[nH]c2=S)cc1,10
8,Cc1cc(Br)ccc1NC(=O)CN(C)C(=O)c1cc([N+](=O)[O-])ccc1N1CCOCC1,-41.9
9,COc1cc(OC)cc(C(=O)NNC(=S)NC(=O)c2cccnc2)c1,14.4
10,CCOc1ccc(OCC)c(NC(=O)C2CCN(S(=O)(=O)c3c(C)[nH]c(=O)[nH]c3=O)CC2)c1,7.51
11,CC(=O)c1ccc(OCCCC(=O)Nc2cc(Cl)ccc2-n2cncn2)cc1,-18.1
12,Cc1cc(C)c(C#N)c(Nc2ccccc2)n1,-3.13
13,CCc1cc(=O)oc2cc(C)cc(OC(C)C(=O)NCC(O)c3ccccc3)c12 (stereo not shown),4.7
14,Cc1ccsc1/C=N/N1CCN(Cc2ccccc2)CC1,9.07
15,O=C1c2ccccc2C(=O)N1CC(O)COc1ccccc1Cl (stereo not shown),5.7
16,CC(=O)c1c(C)nn(CC(O)COc2ccc3c(c2)CCC3)c1C (stereo not shown),2.55
17,COC(=O)c1[nH]c2ccc(Cl)cc2c1NC(=O)C1CC1,17.1
18,Cc1c(CCC(=O)O)c(=O)n2c([nH]c3ccccc32)c1C#N,-3.61
19,Cc1ccc(CN2C(=O)CC(Nc3ccc(N4CCOCC4)cc3)C2=O)cc1 (stereo not shown),5.8
20,O=C(Nc1nc2ccccc2s1)C1CCCN1S(=O)(=O)c1ccc(Cl)cc1 (stereo not shown),-7.55
21,CS(=O)(=O)N1CCN(C(=O)Cc2cccs2)CC1,16.8
22,CC(C)(C)NC(=O)C(c1c[nH]c2ccccc12)N(C(=O)Cn1nnc(-c2ccc(Cl)cc2)n1)c1ccccc1F (stereo not shown),7.15
